Data reported in paper PMC4336329 (PLoS ONE, 2015).
About 2,200 (0.71%) of roughly 310,000 compounds showed an effect of 50% or more. Effects have a minus sign here. The list shows a part of the results.

Target: human ether-à-go-go-related gene (hERG) potassium channel (human, UniProt Q12809)
Test: primary screen, population patch clamp on CHO cells stably expressing hERG

Chain of human ether-à-go-go-related gene (hERG) potassium channel (Q12809 whole entry, looked up): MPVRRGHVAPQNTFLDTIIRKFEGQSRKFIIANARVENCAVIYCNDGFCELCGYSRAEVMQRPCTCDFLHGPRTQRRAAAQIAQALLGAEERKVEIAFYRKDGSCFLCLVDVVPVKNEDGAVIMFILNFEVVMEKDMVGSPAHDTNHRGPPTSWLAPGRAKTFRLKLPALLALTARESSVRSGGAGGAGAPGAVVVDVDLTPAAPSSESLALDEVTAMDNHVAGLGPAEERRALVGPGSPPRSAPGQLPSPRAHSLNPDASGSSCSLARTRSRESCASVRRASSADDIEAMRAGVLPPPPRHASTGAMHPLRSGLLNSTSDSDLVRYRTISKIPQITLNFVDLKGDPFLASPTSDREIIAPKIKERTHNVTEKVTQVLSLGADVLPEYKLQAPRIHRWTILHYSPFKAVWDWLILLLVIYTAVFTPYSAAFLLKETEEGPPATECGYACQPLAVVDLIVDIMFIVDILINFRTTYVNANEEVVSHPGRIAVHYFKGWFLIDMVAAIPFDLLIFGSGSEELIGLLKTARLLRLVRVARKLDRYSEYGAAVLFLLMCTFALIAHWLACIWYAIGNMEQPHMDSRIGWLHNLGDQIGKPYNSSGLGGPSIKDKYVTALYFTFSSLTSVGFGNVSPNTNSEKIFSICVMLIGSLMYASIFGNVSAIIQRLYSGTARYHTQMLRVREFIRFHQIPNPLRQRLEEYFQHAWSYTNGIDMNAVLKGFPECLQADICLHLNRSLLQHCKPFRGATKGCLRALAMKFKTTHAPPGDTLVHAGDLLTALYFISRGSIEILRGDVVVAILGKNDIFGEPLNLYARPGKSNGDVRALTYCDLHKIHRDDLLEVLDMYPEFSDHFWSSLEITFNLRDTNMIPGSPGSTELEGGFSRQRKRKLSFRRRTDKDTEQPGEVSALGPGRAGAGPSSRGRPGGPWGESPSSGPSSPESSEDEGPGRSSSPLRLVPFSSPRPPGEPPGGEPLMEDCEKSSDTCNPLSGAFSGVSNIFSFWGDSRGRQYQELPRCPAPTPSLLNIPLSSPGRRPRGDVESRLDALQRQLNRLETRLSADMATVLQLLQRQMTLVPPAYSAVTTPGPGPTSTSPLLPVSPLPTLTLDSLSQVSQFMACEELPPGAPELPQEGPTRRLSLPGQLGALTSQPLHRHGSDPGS

Row | SMILES | hERG current change (%, negative = inhibition) at 1uM
1 | CCOc1cc(NS(=O)(=O)c2ccc(OC)cc2)c(OCC)cc1NC(=O)c1ccco1 | -12%
2 | Cc1cc(CNC(=O)CC2C(=O)NCCN2CC(C)(C)C)nn1C (centres unmarked) | 10.4%
3 | CCOC(=O)c1c2n(c3c(NCc4ccccc4)ncnc13)CCCC2 | -70.3%
4 | COc1ccc(CN2CCN(C(=O)c3cccc(OC)c3OC)CC2)cc1OC.O=C(O)C(=O)O | 11.2%
5 | CCOC(=O)CN(C(=O)Cn1nnc(-c2ccc(OC)cc2)n1)C(C(=O)NC1CCCC1)c1ccc(F)cc1 (centres unmarked) | 6%
6 | CNC(=O)c1ccc(-c2ccccc2)s1 | 12.6%
7 | O=C(NCc1ccccc1Cl)C1CCN(S(=O)(=O)c2ccc(N3CCCC3=O)cc2)CC1 | 18.4%
8 | CCOC(=O)C1CCCN(CC(=O)Nc2c(C(=O)OC)[nH]c3ccc(C)cc23)C1 (centres unmarked) | 7.52%
9 | O=C1CN(C(=O)CSc2nncn2-c2ccccc2)c2ccccc2N1 | 18.3%
10 | CCN1C(=O)c2ccccc2Sc2ccc(C(=O)O)cc21 | 6.72%
11 | O=C(N/N=C/c1cccc([N+](=O)[O-])c1)c1ccc2nc[nH]c2c1 | 14.2%
12 | O=[N+]([O-])O[C@H]1CO[C@H]2[C@@H]1OC[C@H]2O[N+](=O)[O-] | 5.3%
13 | Cc1ccc2cc(CNC(C)(C)C)c(=O)[nH]c2c1 | -5.6%
14 | O=C(Nc1cccnc1)c1cccc(S(=O)(=O)N2CCc3ccccc32)c1 | 6.42%
15 | CC(=O)Nc1ccc(NC(=O)CNC(=O)COc2ccccc2)cc1 | 7.99%
16 | CC(=O)N1CCc2cc(S(=O)(=O)CCC(=O)NCc3ccc4c(c3)OCO4)ccc21 | 2.72%
17 | COC(=O)C1=C(C)NC(=O)NC1/C=C/c1ccccc1 (centres unmarked) | -2.26%
18 | COc1ccc(C(=O)COC(=O)C2CCCN2C(=O)C23CC4CC(CC(C4)C2)C3)cc1 (centres unmarked) | -0.91%
19 | O=C(CNc1ccccc1)Nc1ccc(F)cc1 | 14.8%

Row | SMILES | hERG current change (%, negative = inhibition) at 1uM
20 | COc1ccc(-n2nc(C(=O)NCC(=O)N3CCC(C(N)=O)CC3)c3ccccc3c2=O)cc1 | 14.1%
21 | COc1ccccc1CNC(=O)c1cc(-c2ccccc2C)nn1CC1CC(c2cccnc2)=NO1 (centres unmarked) | 3.82%
22 | COc1cc(C=O)ccc1OCC(=O)Nc1ccc2c(c1)OCO2 | 11.8%
23 | O=C(O)Cc1ccc(O)cc1 | 11.7%
24 | Cc1cc(C)c(C#N)c(SCc2ccc(C(=O)O)cc2)n1 | 2.68%
25 | C#CCNC(=O)C1=C[C@H](C(C)(C)C)C[C@H](OCCCCO)O1 | -6.94%
26 | Cc1ccc(CNC(=O)Nc2cccc(C)c2)cc1 | 19.4%
27 | COc1cc(SC)ccc1C(=O)Nc1ccncc1 | 11.4%
28 | S=C(NCc1ccc2c(c1)OCO2)Nc1ccc(-c2nc3ccccc3[nH]2)cc1 | 10.8%
29 | Oc1[nH]c2ccccc2c1N=Nc1ccc(C(F)(F)F)cn1 | 10.9%
30 | O=C(CSc1nc2[nH]c(=O)cc(O)c2s1)Nc1cc(Cl)cc(Cl)c1 | 2.13%
31 | Cc1ccc(C)c(N2CCN(C(=O)c3ccc4nc(-c5ccco5)c(-c5ccco5)nc4c3)CC2)c1 | 23.4%
32 | O=C(CN1CCN(c2ccc(F)cc2)CC1)NCc1ccc(Cl)cc1 | -27.9%
33 | CCCS(=O)(=O)N1CCC(C(=O)NC2CCCC(C)C2C)CC1 (centres unmarked) | 5.97%
34 | CC(C)Cc1cc(C(=O)Nc2cc(Cl)ccc2Cl)no1 | 14.1%
35 | CCC1CCCCN1C(=S)Nc1ccc(C(C)=O)cc1 (centres unmarked) | 10.6%
36 | O=C(O)c1cccc(-n2cccc2/C=C2\SC(=O)N(Cc3ccccc3F)C2=O)c1 | 12.9%
37 | Cc1cccc(NC(c2ccc(O)cc2)c2ccc3ccc(C)nc3c2O)n1 (centres unmarked) | 25.6%
38 | Cc1ccc(NC(=S)NNc2ncc(C(F)(F)F)cc2Cl)cc1 | 3.59%

Row | SMILES | hERG current change (%, negative = inhibition) at 1uM
39 | CCOC(=O)c1c(NC(=O)CN2CCCCC2)sc2c1CCN(C(=O)OCC)C2 | 2.11%
40 | O=C(Nc1ccccn1)C12CC3CC(CC(C3)C1)C2 | -12.3%
41 | CCCC(C)NC(=O)C1CCN(C(=O)C2CC(=O)N(c3ccc(C)cc3)C2)CC1 (centres unmarked) | 3.91%
42 | CCc1nn(C)c(N)c1C.Cl | 10.9%
43 | COc1ccccc1CN1C[C@@H]2C[C@@H](c3ccc(Cl)cc3)N3CCC[C@@]23C1=O | -29.4%
44 | O=C(N/N=C/c1ccc(O)c(O)c1)N/N=C/c1ccc(O)c(O)c1 | 9.14%
45 | O=C1/C(=N\S(=O)(=O)c2cccs2)C([n+]2cccc(Cc3ccccc3)c2)=C([O-])c2ccccc21 | 7.92%
46 | COC(=O)c1c(N)sc(C(=O)NCCc2ccccc2)c1C | 12.2%
47 | CCOC1OC(=O)C(Cl)=C1Nc1ccc(C)cc1C (centres unmarked) | 11.5%
48 | CSc1nsc(SC)c1C(=O)O | 19.4%
49 | CSCCC(NC(=O)c1ccc(Cl)cc1Cl)C(=O)OCC(N)=O (centres unmarked) | 8.22%
50 | Cc1[nH]c(=O)[nH]c(=O)c1/C=N/NC(=O)[C@@H](NC(=O)OC(C)(C)C)C(C)C | 6.61%
51 | CC(CCc1ccccc1)NC(=O)CCC1CCCC1 (centres unmarked) | -4.4%
52 | CC(C)Oc1ccc(N2CC(C(=O)Nc3ccc4c(c3)OCO4)CC2=O)cc1 (centres unmarked) | 5.88%
53 | Cc1[nH]c2ccccc2c1/C=C/c1nc2ccccc2c(=O)n1-c1ccc([N+](=O)[O-])cc1 | -1.09%
54 | COc1ccc(-c2cc(C(F)(F)F)nc(SCC(=O)Nc3cc(C)on3)n2)cc1OC | 11.5%
55 | CCCOc1ccc(C(=O)NNC(=S)NC(=O)c2cc(-c3ccc(Cl)cc3)nc3ccccc23)cc1 | 10.3%
56 | Br.C=CCn1c(=N)n(CC(=O)c2ccc(OC)cc2)c2ccccc21 | -2.61%
